Data on 87 compounds can be found in paper PMC4336329 (PLoS ONE, 2015).

Hit rate of the full screen: of about 310,000 compounds, about 2,200 (0.71%) showed an effect of 50% or more. The effect is printed as a negative number. The list shows a part of the results.

The target of the assay is human ether-à-go-go-related gene (hERG) potassium channel (human, UniProt Q12809). As to the kind of experiment: primary screen, population patch clamp on CHO cells stably expressing hERG.
Sequence of human ether-à-go-go-related gene (hERG) potassium channel (Q12809 whole entry, looked up): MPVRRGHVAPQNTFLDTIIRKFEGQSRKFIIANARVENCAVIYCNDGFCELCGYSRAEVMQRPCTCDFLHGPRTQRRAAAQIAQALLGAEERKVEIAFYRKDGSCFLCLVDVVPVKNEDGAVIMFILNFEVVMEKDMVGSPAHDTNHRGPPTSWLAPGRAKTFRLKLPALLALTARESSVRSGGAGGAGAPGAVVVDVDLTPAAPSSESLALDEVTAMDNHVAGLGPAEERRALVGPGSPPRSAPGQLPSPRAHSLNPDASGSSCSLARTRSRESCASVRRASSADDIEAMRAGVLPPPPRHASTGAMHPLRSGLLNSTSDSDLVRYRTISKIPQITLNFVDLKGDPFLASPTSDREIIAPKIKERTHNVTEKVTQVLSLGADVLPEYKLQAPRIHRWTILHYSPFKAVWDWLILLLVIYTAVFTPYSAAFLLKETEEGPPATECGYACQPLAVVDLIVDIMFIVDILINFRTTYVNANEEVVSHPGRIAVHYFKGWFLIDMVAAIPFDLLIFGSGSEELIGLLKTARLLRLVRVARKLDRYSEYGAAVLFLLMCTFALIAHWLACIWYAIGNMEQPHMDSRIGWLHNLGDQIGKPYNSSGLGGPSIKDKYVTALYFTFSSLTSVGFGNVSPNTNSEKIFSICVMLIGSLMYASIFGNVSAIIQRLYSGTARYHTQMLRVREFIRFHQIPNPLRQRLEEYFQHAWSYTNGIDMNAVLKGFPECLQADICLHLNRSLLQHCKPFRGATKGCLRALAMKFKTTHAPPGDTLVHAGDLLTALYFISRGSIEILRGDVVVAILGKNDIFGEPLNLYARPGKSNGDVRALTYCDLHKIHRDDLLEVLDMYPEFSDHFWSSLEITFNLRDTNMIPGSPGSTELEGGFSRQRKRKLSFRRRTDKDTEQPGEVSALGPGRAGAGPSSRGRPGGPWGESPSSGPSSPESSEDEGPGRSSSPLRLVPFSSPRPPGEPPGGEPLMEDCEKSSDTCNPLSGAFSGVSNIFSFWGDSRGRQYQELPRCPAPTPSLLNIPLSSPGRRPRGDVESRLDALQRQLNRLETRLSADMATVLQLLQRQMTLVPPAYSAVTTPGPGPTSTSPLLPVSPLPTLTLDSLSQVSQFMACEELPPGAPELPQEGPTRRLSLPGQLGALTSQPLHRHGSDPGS
Turning to `Cc1noc(C)c1COC(=O)CCCc1c[nH]c2ccccc12`, the “hERG current change (%, negative = inhibition) at 1uM” value came to 8.74%.
In the case of `CC(C)CC(=O)N1CCN(C(=O)c2ccc(-c3ccccc3)cc2)CC1`, the “hERG current change (%, negative = inhibition) at 1uM” value is 5.67%.
As for `O=C(CSc1nnc(NC(=O)c2ccc3c(c2)OCO3)s1)NCc1ccco1`, the figure is 8%; as for `Cc1nonc1CN(C)C(=O)c1ccc(OC2CCN(C(=O)c3cccnc3)CC2)cc1`, 21.1%.
The value for `COc1cccc(CC(=O)Nc2cccc3ccccc23)c1` was -0.288%; that for `O=C(NCCCN1CCCCCC1)c1ccc2c(c1)NC(=O)C(N1CCOCC1)S2` (stereo not drawn) was 10%; that for `CCCCCSc1nc2c(c(=O)[nH]c(=O)n2C)n1C(C)C` was 7.3%.
As for `CCNc1ccc(C(=O)NN=C2CCCC2)cc1[N+](=O)[O-]`, the “hERG current change (%, negative = inhibition) at 1uM” value amounted to 5.15%.
For the compound `COc1ccc(OCc2cc(C(=O)N(C)Cc3nccn3C)no2)c2ccccc12`, the “hERG current change (%, negative = inhibition) at 1uM” value was 2.82%.
`NC(=O)C1(N2CCCCC2)CCN(Cc2nc(-c3cccs3)no2)CC1`: the “hERG current change (%, negative = inhibition) at 1uM” value is recorded as 9.61%.
As for `O=C(Cc1cccc(C(F)(F)F)c1)Nc1cccc(S(=O)(=O)N2CCCC2)c1`, the figure is 16.9%; as for `CN=c1scc(-c2cccs2)n1/N=C/c1ccccc1O`, 9.53%; as for `Cc1ccc(/C=N/n2c(C)nc3ccccc3c2=O)s1`, 3.22%.
Turning to `Cc1ccc(-n2c(=S)sc3c(=O)n(-c4ccc(F)cc4)c(SCC(=O)O)nc32)cc1C`, the “hERG current change (%, negative = inhibition) at 1uM” value was 12%.
Regarding `CCN(CC)CCCn1c2c(c(SCC(=O)Nc3nc(C)cs3)nc1=O)CCC2`, the “hERG current change (%, negative = inhibition) at 1uM” value is -1.1%.
Consider `O=C(c1n[nH]c(=O)c2ccccc12)N1CCN(C2c3ccccc3-c3ccccc32)CC1`, for which the “hERG current change (%, negative = inhibition) at 1uM” value came to 11.4%.
`O=C(CSc1ccc2c(c1)OCCO2)Nc1ccc(Br)cn1`: the “hERG current change (%, negative = inhibition) at 1uM” value was determined as 11.8%.
As for `CCOC(=O)c1cc(NC(=O)NC2CCCCC2)c(C)nc1C`, the figure is 15.2%; as for `CCc1ccc(-c2n[nH]c(=O)c3ccccc23)cc1`, 7.75%; as for `Nc1nc(N2CCCCC2)nc(N(c2ccccc2)c2ccccc2)n1`, 15.2%.
In the case of `COc1ccccc1-c1noc(-c2ccncc2)n1`, the “hERG current change (%, negative = inhibition) at 1uM” value is recorded as 1.49%.
As for `Cc1ccccc1S(=O)(=O)N(CC(O)CN1CCCCC1)c1ccccc1` (stereo not drawn), the “hERG current change (%, negative = inhibition) at 1uM” value is on record as -71.2%.
`COc1ccc(C2=Nn3c(nnc3-c3ccccn3)SC2)cc1`: the “hERG current change (%, negative = inhibition) at 1uM” value is reported as -19.9%.
As for `CCOCc1nnc(NC(=O)c2cc(OC)c(OC)c(OC)c2)s1`, the “hERG current change (%, negative = inhibition) at 1uM” value is 9.69%.
Take `Cn1nc(C(=O)OCC(=O)c2ccc(Br)cc2)c2ccccc2c1=O`: the “hERG current change (%, negative = inhibition) at 1uM” value is recorded as 9.84%.
As to `CCc1cccc(NC(=O)CSc2nnc(Cc3ccc(OC)cc3)c(=O)[nH]2)c1`, the “hERG current change (%, negative = inhibition) at 1uM” value came to 5.65%.
Regarding `COc1ccc(-n2nnc3c(=O)n(Cc4ccccc4C)cnc32)cc1`, the “hERG current change (%, negative = inhibition) at 1uM” value is on record as 0.996%.
On to `Cc1ccc(C(=O)N/N=C\c2ccc([N+](=O)[O-])o2)cn1`, for which the “hERG current change (%, negative = inhibition) at 1uM” value is listed as 13%.
As for `Cc1cccc(-c2nsc(SCC(=O)Nc3nccs3)n2)c1`, the “hERG current change (%, negative = inhibition) at 1uM” value came to 16.3%.
As for `O=C(O)c1cc2n(n1)C(C(F)(F)F)CC(c1ccco1)N2` (stereo not drawn), the figure is 13.4%; as for `Cc1onc(-c2ccccc2Cl)c1C(=O)NC(=S)Nc1ccc(C(C)(C)C)cc1`, 5.51%.
As to `CCOc1ccc(NC(=O)CSC2=NN3CCCC(=O)N=C3S2)cc1`, the “hERG current change (%, negative = inhibition) at 1uM” value came out at 15.7%.
With `CC(C)CN(CCCNC(=O)CC1Oc2ccccc2NC1=O)CC(C)C` (stereo not drawn), the “hERG current change (%, negative = inhibition) at 1uM” value is 2.99%.
`N#CC1=C(N)N(c2ccccc2)C(c2ccccc2)C1(C#N)C#N` (stereo not drawn): the “hERG current change (%, negative = inhibition) at 1uM” value is listed as 1.74%.
As for `COCCCNC(=O)CN(C1CCCCC1)S(=O)(=O)c1ccc(C)cc1`, the figure is 10.4%; as for `COc1ccc(/C=C/C=C2\N=C(SC)SC2=O)cc1`, 15.3%; as for `Cc1noc(C)c1C(=O)OCC(=O)NC(c1ccccc1)c1ccccc1`, 6.25%.
As to `CCN1C(=S)N[C@@H](CCc2ccccc2)C(C(=O)OC)=C1C`, the “hERG current change (%, negative = inhibition) at 1uM” value is listed as 14.4%.
For the compound `Cc1nn(-c2ccccc2)c(C)c1/C=C/C(=O)OCC(=O)Nc1ccc(S(N)(=O)=O)cc1`, the “hERG current change (%, negative = inhibition) at 1uM” value stood at 15.7%.
The value for `COc1cc2c(cc1OC)C(c1cc(Br)ccc1F)N(C(=O)CCl)CC2` (stereo not drawn) was 29.2%; that for `S=C(NCCN1CCOCC1)N/N=C/c1c2ccccc2cc2ccccc12` was 9.38%; that for `CC1(C)CC(=O)C(C=NCCO)=C(O)C1` was 9.26%.
`CSc1ccccc1OCc1cc(C(=O)N(C)C(C)c2ccccn2)no1` (stereo not drawn): the “hERG current change (%, negative = inhibition) at 1uM” value was -6.89%.
For `CS(=O)(=O)c1cccc(C(=O)Nc2cccc(-c3nc4ccccc4[nH]3)c2)c1`, the “hERG current change (%, negative = inhibition) at 1uM” value is -2.8%.
As for `CCn1c(SCC(=O)NC(C)(C)C)nnc1-c1ccncc1`, the figure is 16.5%; as for `CC(=O)c1cccc(CN(C)CC2CCCN(CCc3ccccc3C)C2)c1` (stereo not drawn), 10.2%; as for `COc1ccc(/C=N/NC(=O)c2[nH]c3ccc(Cl)cc3c2-c2ccccc2)c(C(=O)O)c1OC`, 11%.
On to `Cc1ccc(S(=O)(=O)n2ccnc2)cc1C`, for which the “hERG current change (%, negative = inhibition) at 1uM” value came out at 6.57%.
In the case of `O=C1c2ccccc2-c2nnc(-c3ccccc3)cc21`, the “hERG current change (%, negative = inhibition) at 1uM” value is listed as 5.64%.
On to `CC(=O)Nc1c2c(nn1-c1cccc(C)c1)CSC2`, for which the “hERG current change (%, negative = inhibition) at 1uM” value is 6.43%.
For the compound `C=CCc1cccc(/C=N/NC(=O)CNc2ccccc2OC)c1O`, the “hERG current change (%, negative = inhibition) at 1uM” value came to 10.9%.
As to `COc1ccc(N2CC(C(=O)Nc3nnc(SCC(=O)NCc4ccco4)s3)CC2=O)cc1` (stereo not drawn), the “hERG current change (%, negative = inhibition) at 1uM” value is recorded as 14.4%.
Consider `C=CCn1c(SCC(=O)NCCCC)nc2scc(-c3ccco3)c2c1=O`, for which the “hERG current change (%, negative = inhibition) at 1uM” value was -2.26%.
The value for `O=C(c1ccc(F)cc1)N1CCOC(c2nc(-c3ccc(F)cc3)no2)C1` (stereo not drawn) was -6.77%; that for `N#C/C(=C\c1c(N2CCN(c3ccccc3)CC2)nc2ccccn2c1=O)S(=O)(=O)c1ccccc1` was 14.1%; that for `CCc1ccc(OCC(=O)NCCc2ccc3c(c2)OCCO3)cc1` was 7.4%.
Regarding `O=C(COc1ccccc1[N+](=O)[O-])N(Cc1ccccc1)c1ccccn1`, the “hERG current change (%, negative = inhibition) at 1uM” value came out at 9.8%.
The value for `CC(=O)c1ccc(N(CC(=O)NC2CCCCC2)C(=O)CNC(=O)c2ccco2)cc1` was 8.49%; that for `COc1ccc(-n2c(/C=C3\C(=O)N(C)c4ccccc43)nc3ccccc3c2=O)cc1` was 13.6%.
In the case of `CC(=O)Nc1ccc(Oc2nc(-c3cccnc3)nc3sc4c(c23)CCCC4)cc1`, the “hERG current change (%, negative = inhibition) at 1uM” value is given as 12.6%.
As for `Cc1ccc(OCCSc2ncnc3sc(C)c(C)c23)cc1C`, the figure is 3.14%.
`COc1ccc(C(=O)Nn2cnc3ccccc3c2=O)cc1[N+](=O)[O-]`: the “hERG current change (%, negative = inhibition) at 1uM” value came to 9.23%.
`O=C(COc1nc2ccccc2nc1N1CCOCC1)Nc1cccc(S(=O)(=O)N2CCCCC2)c1`: the “hERG current change (%, negative = inhibition) at 1uM” value stood at 9.03%.
The value for `CCCCN(Cc1cc2cc(OC)ccc2[nH]c1=O)C(=O)c1ccccn1` was -13.8%.
With `O=C(CN(c1ccc(F)cc1)S(=O)(=O)c1ccccc1)NCCSC1CCCCC1`, the “hERG current change (%, negative = inhibition) at 1uM” value is -0.554%.
With `COc1cc(OC)cc(C(=O)Nc2ccccc2-c2nnn(CC(=O)Nc3cc(C)on3)n2)c1`, the “hERG current change (%, negative = inhibition) at 1uM” value was found to be 3.04%.
For the compound `O=C(N/N=C1/CC2C=CCC12)c1ccco1` (stereo not drawn), the “hERG current change (%, negative = inhibition) at 1uM” value turned out to be 0.749%.
`COc1ccc(N(C)S(=O)(=O)c2cccc(C(=O)NC3CCC(C)CC3)c2)cc1` (stereo not drawn): the “hERG current change (%, negative = inhibition) at 1uM” value is -11.1%.
Regarding `COc1ccc(CNC(=O)c2csc(Cc3ccc(OC)cc3)n2)cc1`, the “hERG current change (%, negative = inhibition) at 1uM” value is recorded as -3.67%.
As to `O=C(CNS(=O)(=O)c1ccccc1)Nc1ccc(C(F)(F)F)cc1`, the “hERG current change (%, negative = inhibition) at 1uM” value is -4.14%.
On to `COc1cc(CC(=O)OCn2nnc3ccccc3c2=O)cc(OC)c1OC`, for which the “hERG current change (%, negative = inhibition) at 1uM” value amounted to 11.9%.
With `COCCN1CCN(C(=O)C2CCC(=O)N(Cc3cccc(C(F)(F)F)c3)C2)CC1` (stereo not drawn), the “hERG current change (%, negative = inhibition) at 1uM” value is given as -2.67%.
As for `COc1ccc(Cl)cc1/C=C1/C(=O)ON=C1C`, the “hERG current change (%, negative = inhibition) at 1uM” value is reported as 12.5%.
On to `COC(=O)c1oc2ccc(Br)cc2c1NC(=O)CCN1CCOCC1`, for which the “hERG current change (%, negative = inhibition) at 1uM” value is -6.66%.
Regarding `Cc1nc(CS(=O)(=O)c2ccccc2)cc(Sc2ccc(Cl)cc2Cl)n1`, the “hERG current change (%, negative = inhibition) at 1uM” value is given as 0.355%.
In the case of `O=C(Cc1cccs1)N(c1ccc(Br)cc1)C1C=CS(=O)(=O)C1` (stereo not drawn), the “hERG current change (%, negative = inhibition) at 1uM” value is 6.81%.
Turning to `C=CCn1cc(/C=C2\SC(N3CCOCC3)=NC2=O)c2ccccc21`, the “hERG current change (%, negative = inhibition) at 1uM” value was 13.1%.
Turning to `COc1ccc(C)cc1NC(=O)c1cc2ccccc2cc1OCC(=O)NCc1ccco1`, the “hERG current change (%, negative = inhibition) at 1uM” value is 3.05%.
As for `COc1cccc(N(CC(=O)NC2CC3CCC2C3)S(=O)(=O)c2ccccc2)c1` (stereo not drawn), the “hERG current change (%, negative = inhibition) at 1uM” value is listed as -9.98%.
Regarding `Cc1cc(=O)oc2cc(NC(=O)C(CCCN=C(N)N)NC(=O)OCc3ccccc3)ccc12` (stereo not drawn), the “hERG current change (%, negative = inhibition) at 1uM” value was 11%.
The value for `CN(CC(=O)Nc1ccc(F)cc1)C(=O)COC(=O)/C=C/c1ccccc1[N+](=O)[O-]` was -7.91%; that for `Cc1cc(Cl)ccc1-n1c(-c2cccnc2)n[nH]c1=S` was 9.62%.
Turning to `Cc1ccc(NC(=O)COc2ccc(/C(N)=N/O)cc2)cc1C`, the “hERG current change (%, negative = inhibition) at 1uM” value was 3.34%.
On to `CS(=O)(=O)N(CC(=O)Nc1cccc(Cl)c1)c1ccccc1Cl`, for which the “hERG current change (%, negative = inhibition) at 1uM” value is -1.27%.
Take `Cc1cc(/C=N/NC(=O)c2cccs2)c(C)n1-c1cnccn1`: the “hERG current change (%, negative = inhibition) at 1uM” value is reported as 10.1%.
Take `COc1ccc([N+](=O)[O-])cc1N(CC(=O)N1CCN(Cc2ccccc2)CC1)S(C)(=O)=O`: the “hERG current change (%, negative = inhibition) at 1uM” value came to 9.95%.
Regarding `COCCCN1CC(=O)N2C(c3cccc(OC)c3OC)c3[nH]c4ccccc4c3C[C@H]2C1=O` (stereo partly drawn), the “hERG current change (%, negative = inhibition) at 1uM” value stood at 9.98%.
